Reference: patent US5834430A, “Potentiation of antibiotics” (BiosYnth S.r.l., priority 1995, dated 1998)
Not every detail of the peptide structures is certain; ends, links or a residue may be inferred. Positions of bridges follow the written chain, without caps; N, C: chain ends. Residues, ends and D or L forms follow the SMILES beside them.

Columns and labels:
E. coli IH3080 [1] = assay: Checkerboard microdilution MIC of antibiotic with peptide; assay type: cell-based, Escherichia coli; conditions: for MIC Rifampin: Experiment I; for MIC Fusidic a.: Experiment II; for MIC Novobiocin: Experiment III; for MIC Erythrom.: Experiment IV
Protocol: (§1) The general assay medium was L broth (pH7.2) which contained 10 g of tryptone (Difco Laboratories, Detroit, Mich.), 5 g of yeast extract (Oxoid Ltd., Hampshire, UK) and 5 g of sodium chloride per liter. After an incubation time of 18 hours at 37° C., the growth of each microtiter well is measured with a Titerteck Multiscan spectrophotometer at 405 nm. Before reading, the spectrophotometer was blanked with corresponding uninoculated drug-containing media. The minimum inhibitory concentration (MIC) of an antibiotic was defined as the lowest concentration of the antibiotic expressed in mg/l which reduced the growth of the target bacteria by ≥90% (MIC90).

S. typhi SH5014 = assay: as above; assay type: cell-based, Salmonella typhimurium; conditions: for MIC Rifampin: Experiment I; for MIC Fusidic a.: Experiment II; for MIC Novobiocin: Experiment III
Protocol: as §1

Kl. pneumoniae 12854 = assay: as above; assay type: cell-based; conditions: for MIC Rifampin: Experiment I; for MIC Fusidic a.: Experiment II; for MIC Novobiocin: Experiment III; for MIC Erythrom.: Experiment IV
Protocol: as §1

E. cloa 12645 = assay: as above; assay type: cell-based, Enterobacter cloacae; conditions: for MIC Rifampin: Experiment I; for MIC Fusidic a.: Experiment II; for MIC Novobiocin: Experiment III; for MIC Erythrom.: Experiment IV
Protocol: as §1

E. coli IH3080 [2] = assay: Antibacterial activity of peptide used alone; assay type: cell-based, Escherichia coli; conditions: no antibiotic
Klebs pneum. 12854 = assay: Antibacterial activity of peptide used alone; assay type: cell-based, Klebsiella pneumoniae; conditions: no antibiotic
Enterob. cloacae 12654 = assay: Antibacterial activity of peptide used alone; assay type: cell-based, Enterobacter cloacae; conditions: no antibiotic
Pseud. aeroginosa PAO1 = assay: Antibacterial activity of peptide used alone; assay type: cell-based, Pseudomonas aeruginosa; conditions: no antibiotic
Micrococcus luteus ML36 = assay: Antibacterial activity of peptide used alone; assay type: cell-based; conditions: no antibiotic

CC(C)C[C@H](NC(=O)[C@H](Cc1ccccc1)NC(=O)[C@H](CC(C)C)NC(=O)[C@H](Cc1ccccc1)NC(=O)[C@H](CCCCN)NC(=O)[C@H](CCCCN)NC(=O)[C@H](CCCCN)NC(=O)[C@H](CCCCN)NC(=O)[C@H](CCCCN)NC(=O)[C@@H](N)CCCCN)C(=O)O [Peptide Seq. ID 42] (H-KKKKKKFLFL-OH)
MIC Rifampin (E. coli IH3080 [1]; peptide 1 mg/l): 10 mg/L | MIC Rifampin (E. coli IH3080 [1]; peptide 10 mg/l): 3 mg/L | MIC Fusidic a. (E. coli IH3080 [1]; peptide 1 mg/l): 300 mg/L | MIC Fusidic a. (E. coli IH3080 [1]; peptide 10 mg/l): 300 mg/L | MIC Novobiocin (E. coli IH3080 [1]; peptide 1 mg/l): 10 mg/L | MIC Novobiocin (E. coli IH3080 [1]; peptide 10 mg/l): 10 mg/L | MIC Erythrom. (E. coli IH3080 [1]; peptide 1 mg/l): 100 mg/L | MIC Erythrom. (E. coli IH3080 [1]; peptide 10 mg/l): 30 mg/L | MIC Rifampin (S. typhi SH5014; peptide 1 mg/l): 10 mg/L | MIC Rifampin (S. typhi SH5014; peptide 10 mg/l): 10 mg/L | MIC Fusidic a. (S. typhi SH5014; peptide 1 mg/l): > 300 mg/L | MIC Fusidic a. (S. typhi SH5014; peptide 10 mg/l): 300 mg/L | MIC Novobiocin (S. typhi SH5014; peptide 1 mg/l): 30 mg/L | MIC Novobiocin (S. typhi SH5014; peptide 10 mg/l): 10 mg/L | MIC Erythromycin. (S. typhi SH5014; Experiment IV, peptide 1 mg/l): 100 mg/L | MIC Erythromycin. (S. typhi SH5014; Experiment IV, peptide 10 mg/l): 100 mg/L | MIC Rifampin (Kl. pneumoniae 12854; peptide 1 mg/l): 10 mg/L | MIC Rifampin (Kl. pneumoniae 12854; peptide 10 mg/l): 10 mg/L | MIC Rifampin (Kl. pneumoniae 12854; peptide 100 mg/l): 1 mg/L | MIC Fusidic a. (Kl. pneumoniae 12854; peptide 1 mg/l): > 300 mg/L | MIC Fusidic a. (Kl. pneumoniae 12854; peptide 10 mg/l): > 300 mg/L | MIC Fusidic a. (Kl. pneumoniae 12854; peptide 100 mg/l): 100 mg/L | MIC Novobiocin (Kl. pneumoniae 12854; peptide 1 mg/l): 30 mg/L | MIC Novobiocin (Kl. pneumoniae 12854; peptide 10 mg/l): 30 mg/L | MIC Novobiocin (Kl. pneumoniae 12854; peptide 100 mg/l): 1 mg/L | MIC Erythrom. (Kl. pneumoniae 12854; peptide 1 mg/l): > 100 mg/L | MIC Erythrom. (Kl. pneumoniae 12854; peptide 10 mg/l): > 100 mg/L | MIC Erythrom. (Kl. pneumoniae 12854; peptide 100 mg/l): 10 mg/L | MIC Rifampin (E. cloa 12645; peptide 1 mg/l): 10 mg/L | MIC Rifampin (E. cloa 12645; peptide 10 mg/l): 10 mg/L | MIC Rifampin (E. cloa 12645; peptide 100 mg/l): 0.01 mg/L | MIC Fusidic a. (E. cloa 12645; peptide 1 mg/l): > 300 mg/L | MIC Fusidic a. (E. cloa 12645; peptide 10 mg/l): > 300 mg/L | MIC Fusidic a. (E. cloa 12645; peptide 100 mg/l): 30 mg/L | MIC Novobiocin (E. cloa 12645; peptide 1 mg/l): > 30 mg/L | MIC Novobiocin (E. cloa 12645; peptide 10 mg/l): > 30 mg/L | MIC Novobiocin (E. cloa 12645; peptide 100 mg/l): 3 mg/L | MIC Erythrom. (E. cloa 12645; peptide 1 mg/l): > 100 mg/L | MIC Erythrom. (E. cloa 12645; peptide 10 mg/l): > 100 mg/L | MIC Erythrom. (E. cloa 12645; peptide 100 mg/l): 10 mg/L | antibacterial activity (MIC) of peptide used alone (E. coli IH3080 [2]): 30 mg/L | antibacterial activity (MIC) of peptide used alone (Klebs pneum. 12854): > 100 mg/L | antibacterial activity (MIC) of peptide used alone (Enterob. cloacae 12654): > 100 mg/L | antibacterial activity (MIC) of peptide used alone (Pseud. aeroginosa PAO1): > 100 mg/L | antibacterial activity (MIC) of peptide used alone (Micrococcus luteus ML36): 10 mg/L

NCCCC[C@@H]1NC(=O)[C@H](Cc2ccccc2)NC(=O)[C@H](CCCCN)NC(=O)[C@H](Cc2ccccc2)NC(=O)[C@H](CCCCN)NC(=O)[C@H](Cc2ccccc2)NC(=O)[C@H](CCCCN)NC(=O)[C@@H](N)CSSC[C@@H](C(=O)O)NC(=O)[C@H](Cc2ccccc2)NC1=O [Peptide Seq. ID 43] (H-CKFKFKFKFC-OH; disulfide 1-10)
MIC Rifampin (E. coli IH3080 [1]; peptide 1 mg/l): 10 mg/L | MIC Rifampin (E. coli IH3080 [1]; peptide 10 mg/l): 1 mg/L | MIC Rifampin (E. coli IH3080 [1]; peptide 30 mg/l): 0.1 mg/L | MIC Fusidic a. (E. coli IH3080 [1]; peptide 1 mg/l): 300 mg/L | MIC Fusidic a. (E. coli IH3080 [1]; peptide 10 mg/l): 100 mg/L | MIC Fusidic a. (E. coli IH3080 [1]; peptide 30 mg/l): 10 mg/L | MIC Novobiocin (E. coli IH3080 [1]; peptide 1 mg/l): 30 mg/L | MIC Novobiocin (E. coli IH3080 [1]; peptide 10 mg/l): 10 mg/L | MIC Novobiocin (E. coli IH3080 [1]; peptide 30 mg/l): 1 mg/L | MIC Erythrom. (E. coli IH3080 [1]; peptide 1 mg/l): 100 mg/L | MIC Erythrom. (E. coli IH3080 [1]; peptide 10 mg/l): 30 mg/L | MIC Erythrom. (E. coli IH3080 [1]; peptide 30 mg/l): 1 mg/L | MIC Rifampin (S. typhi SH5014; peptide 1 mg/l): 10 mg/L | MIC Rifampin (S. typhi SH5014; peptide 10 mg/l): 3 mg/L | MIC Rifampin (S. typhi SH5014; peptide 30 mg/l): 0.1 mg/L | MIC Fusidic a. (S. typhi SH5014; peptide 1 mg/l): > 300 mg/L | MIC Fusidic a. (S. typhi SH5014; peptide 10 mg/l): 300 mg/L | MIC Fusidic a. (S. typhi SH5014; peptide 30 mg/l): 1 mg/L | MIC Novobiocin (S. typhi SH5014; peptide 1 mg/l): 30 mg/L | MIC Novobiocin (S. typhi SH5014; peptide 10 mg/l): 10 mg/L | MIC Novobiocin (S. typhi SH5014; peptide 30 mg/l): 1 mg/L | MIC Erythromycin. (S. typhi SH5014; Experiment IV, peptide 1 mg/l): 100 mg/L | MIC Erythromycin. (S. typhi SH5014; Experiment IV, peptide 10 mg/l): 100 mg/L | MIC Erythrom. (S. typhi SH5014; Experiment IV, peptide 30 mg/l): 1 mg/L | MIC Rifampin (Kl. pneumoniae 12854; peptide 1 mg/l): 10 mg/L | MIC Rifampin (Kl. pneumoniae 12854; peptide 10 mg/l): 10 mg/L | MIC Rifampin (Kl. pneumoniae 12854; peptide 100 mg/l): 0.3 mg/L | MIC Fusidic a. (Kl. pneumoniae 12854; peptide 1 mg/l): > 300 mg/L | MIC Fusidic a. (Kl. pneumoniae 12854; peptide 10 mg/l): 300 mg/L | MIC Fusidic a. (Kl. pneumoniae 12854; peptide 100 mg/l): 30 mg/L | MIC Novobiocin (Kl. pneumoniae 12854; peptide 1 mg/l): 30 mg/L | MIC Novobiocin (Kl. pneumoniae 12854; peptide 10 mg/l): 30 mg/L | MIC Novobiocin (Kl. pneumoniae 12854; peptide 100 mg/l): 3 mg/L | MIC Erythrom. (Kl. pneumoniae 12854; peptide 1 mg/l): > 100 mg/L | MIC Erythrom. (Kl. pneumoniae 12854; peptide 10 mg/l): > 100 mg/L | MIC Erythrom. (Kl. pneumoniae 12854; peptide 100 mg/l): 10 mg/L | MIC Rifampin (E. cloa 12645; peptide 1 mg/l): 10 mg/L | MIC Rifampin (E. cloa 12645; peptide 10 mg/l): 3 mg/L | MIC Rifampin (E. cloa 12645; peptide 100 mg/l): 0.3 mg/L | MIC Fusidic a. (E. cloa 12645; peptide 1 mg/l): > 300 mg/L | MIC Fusidic a. (E. cloa 12645; peptide 10 mg/l): > 300 mg/L | MIC Fusidic a. (E. cloa 12645; peptide 100 mg/l): 30 mg/L | MIC Novobiocin (E. cloa 12645; peptide 1 mg/l): > 30 mg/L | MIC Novobiocin (E. cloa 12645; peptide 10 mg/l): > 30 mg/L | MIC Novobiocin (E. cloa 12645; peptide 100 mg/l): 10 mg/L | MIC Erythrom. (E. cloa 12645; peptide 1 mg/l): > 100 mg/L | MIC Erythrom. (E. cloa 12645; peptide 10 mg/l): 100 mg/L | MIC Erythrom. (E. cloa 12645; peptide 100 mg/l): 10 mg/L | antibacterial activity (MIC) of peptide used alone (E. coli IH3080 [2]): 100 mg/L | antibacterial activity (MIC) of peptide used alone (Klebs pneum. 12854): > 100 mg/L | antibacterial activity (MIC) of peptide used alone (Enterob. cloacae 12654): > 100 mg/L | antibacterial activity (MIC) of peptide used alone (Pseud. aeroginosa PAO1): > 100 mg/L | antibacterial activity (MIC) of peptide used alone (Micrococcus luteus ML36): 30 mg/L
